Hit rate of the full screen: of about 310,000 compounds, about 14,000 (4.5%) showed an effect of 50% or more. Effects have a minus sign here. The list shows a part of the results.
molecular target: human ether-à-go-go-related gene (hERG) potassium channel (human, UniProt Q12809); test: primary screen, population patch clamp on CHO cells stably expressing hERG
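Further: peak tail current of the secondary pulse compared with the same well before compound.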

Sequence of human ether-à-go-go-related gene (hERG) potassium channel (Q12809 whole entry, looked up): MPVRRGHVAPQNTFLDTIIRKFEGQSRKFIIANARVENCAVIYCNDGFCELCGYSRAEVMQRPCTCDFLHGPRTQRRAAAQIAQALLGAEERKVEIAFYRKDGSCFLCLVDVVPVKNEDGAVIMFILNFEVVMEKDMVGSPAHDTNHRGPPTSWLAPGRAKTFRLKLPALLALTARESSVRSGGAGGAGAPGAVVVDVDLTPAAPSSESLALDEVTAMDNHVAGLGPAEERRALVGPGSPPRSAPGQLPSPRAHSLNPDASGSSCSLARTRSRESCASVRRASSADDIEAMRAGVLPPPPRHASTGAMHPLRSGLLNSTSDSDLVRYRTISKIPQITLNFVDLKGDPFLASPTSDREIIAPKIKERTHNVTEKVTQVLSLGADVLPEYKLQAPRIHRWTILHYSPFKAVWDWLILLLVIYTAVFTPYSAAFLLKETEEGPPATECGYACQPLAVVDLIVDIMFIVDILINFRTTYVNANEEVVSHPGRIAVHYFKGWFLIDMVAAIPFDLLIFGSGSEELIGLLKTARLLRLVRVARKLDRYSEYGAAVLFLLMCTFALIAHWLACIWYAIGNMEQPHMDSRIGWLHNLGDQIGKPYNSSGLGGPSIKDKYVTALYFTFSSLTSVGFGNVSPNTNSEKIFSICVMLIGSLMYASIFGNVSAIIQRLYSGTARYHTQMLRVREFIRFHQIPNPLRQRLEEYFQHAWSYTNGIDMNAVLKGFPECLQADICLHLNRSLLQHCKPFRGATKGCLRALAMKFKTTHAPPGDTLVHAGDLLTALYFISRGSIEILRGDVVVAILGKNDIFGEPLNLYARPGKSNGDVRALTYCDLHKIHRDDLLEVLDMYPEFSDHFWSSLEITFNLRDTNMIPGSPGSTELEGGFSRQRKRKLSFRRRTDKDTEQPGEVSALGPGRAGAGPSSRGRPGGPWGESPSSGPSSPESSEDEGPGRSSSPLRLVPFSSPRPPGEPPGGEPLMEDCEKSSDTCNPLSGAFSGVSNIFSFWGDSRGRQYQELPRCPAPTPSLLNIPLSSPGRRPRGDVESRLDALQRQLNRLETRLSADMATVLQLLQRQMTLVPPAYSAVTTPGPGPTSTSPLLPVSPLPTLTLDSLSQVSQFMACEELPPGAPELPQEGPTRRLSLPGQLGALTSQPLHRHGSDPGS

Row | Structure (SMILES) | hERG current change (%, negative = inhibition) at 10uM [%]
1 | Cc1ccc(OCC(O)CNCc2ccccc2)cc1C (centres unmarked) | -33.5
2 | O=C(COc1ccc(F)cc1)N(Cc1cccs1)C1CCS(=O)(=O)C1 (centres unmarked) | -33.4
3 | CCCCOc1ccc(C(O)(CCC)CCN2CCOCC2)cc1 (centres unmarked) | -51.2
4 | CCOc1ccc(OCCn2ccnc2)cc1 | -3.62
5 | COC(=O)C1=NNC2(c3ccc(Cl)cc3)C(=O)N(c3ccc(Cl)cc3)C(=O)C12 (centres unmarked) | -9.89
6 | CC1(C)CC(=O)CC(=O)/C1=N\Nc1c(Cl)cc(Cl)cc1Cl | -4.28
7 | CC(Cc1ccccc1)NC(=O)C(c1ccc(N)cc1)c1ccc(N)cc1 (centres unmarked) | 8.62
8 | Cc1nc(N2CCOCC2)nc(N2CCC(C)CC2)c1[N+](=O)[O-] | -0.964
9 | C(=N/Nc1nc(-c2ccccc2)cc(-c2ccccc2)n1)/c1cccnc1 | -3.66
10 | CC(C)c1ccc(NC(=O)CN2C(=O)NC(Cc3c[nH]c4ccccc34)C2=O)cc1 (centres unmarked) | -25.5
11 | O=C(CCC(=O)c1ccc(F)cc1)NN1C(=O)NC2(CCCCC2)C1=O | -12.4
12 | COc1ccc(C(C(=O)NCC2CCCO2)N(C(=O)CNC(=O)c2cccs2)c2ccccc2)cc1OC (centres unmarked) | 6.13
13 | CCC(CO)Oc1cc(NCc2ccccc2F)c2ncn(C(C)C)c2c1 (centres unmarked) | -21
14 | COc1ccc(NC(=O)CN2C(=O)COc3ccc(S(=O)(=O)N4CCOCC4)cc32)cc1 | -0.308
15 | O=C(NC1CC1)c1ccc2c(c1)S(=O)(=O)c1cc(Cl)ccc1C2=O | -23
16 | Nc1c(NCCC2=CCCCC2)c(=O)[nH]c(=O)n1Cc1ccccc1 | -26
17 | COCCCn1c(SCC(=O)N2CCCC(C)C2)nnc1-c1ccco1 (centres unmarked) | -20.2
18 | Fc1ccc(CNc2nc3ccccc3n3cnnc23)cc1 | -3.58
19 | Cc1ccccc1SCC(=O)OCC(=O)Nc1sccc1C(N)=O | 6.58
20 | CC(=O)C1=C(C)NC(=O)CC1c1ccc(Br)cc1 (centres unmarked) | 13.1
21 | COC(=O)C[C@]1(C(=O)OC)CN(C#N)N(c2ccc(Cl)cc2)C12c1ccccc1-c1ccccc12 | -5.93
22 | CCOC(=O)c1ccc(Oc2c(C)oc3cc(OS(C)(=O)=O)ccc3c2=O)cc1 | -66
23 | O=C(NCc1ccc(Cl)cc1)c1ccccc1CCc1ccccc1 | -1.72

Row | Structure (SMILES) | hERG current change (%, negative = inhibition) at 10uM [%]
24 | CC(OC(=O)C1=COCCO1)C(=O)Nc1cc(S(=O)(=O)N2CCCCC2)ccc1Cl (centres unmarked) | -7.13
25 | O=C(c1ccc(F)cc1F)N1CCCC(c2nc(-c3cccs3)no2)C1 (centres unmarked) | -17.7
26 | O=C(CCNS(=O)(=O)c1ccccc1F)N1CCN(S(=O)(=O)c2cccc(F)c2)CC1 | -2.7
27 | CCc1nnc(NC(=O)c2cc3ccccc3oc2=O)s1 | 14.7
28 | COc1ccc(OC)c(S(=O)(=O)NCc2csc(-c3ccccc3)n2)c1 | -11.1
29 | COc1ccc(Cc2nnc(NC(=O)c3cc(OC)cc(OC)c3)s2)cc1 | 18.2
30 | CCC1(Cc2ccccc2)NC(=O)c2ccccc2O1 (centres unmarked) | 2.36
31 | CN1CCN(S(=O)(=O)c2cccc(C(=O)N(c3ccccn3)C3CCCCC3)c2)CC1 | -14.5
32 | CC(=O)N1CCN(c2ccc(NCc3ccc(C(C)C)cc3)cc2)CC1 | -2.61
33 | CCOc1ccc(NC(=O)CCC(=O)Nc2cc(OC)c(NC(=O)c3ccco3)cc2OC)cc1 | 10.4
34 | COc1ccc(NC(=O)CN(c2cc(C)cc(C)c2)S(=O)(=O)c2c(C)noc2C)cc1OC | -1.78
35 | O=C(Nc1cc(C(F)(F)F)ccc1Cl)c1cc2nc3c(c(C(F)(F)F)n2n1)CCCC3 | 8.44
36 | O=C(COc1ccccc1)Nc1ccccc1C(=O)NC1CC1 | -12.1
37 | Cc1ccc(S(=O)(=O)N2CCN(c3ccc([N+](=O)[O-])c(NCCN4CCOCC4)c3)CC2)cc1 | 6.37
38 | Cc1onc(-c2ccccc2Cl)c1C(=O)N(C)CC(=O)Nc1ccc(F)c(F)c1F | -32.7
39 | O=c1c2c([nH]c3ccccc13)CCCC2 | 19.9
40 | CCc1ccc(CN(C)C(=O)C2CCC(=O)N(CC3CCCCC3)C2)cc1 (centres unmarked) | -21.1
41 | COc1ccc(/C=C/C(=O)OCCCN(C)C)cc1.Cl | -27.2
42 | COc1ccc(C(=O)NCC(=O)N=Nc2c(O)n(C)c3ccccc23)cc1OC | -6.6
43 | CCC(C)(C(=O)NC1CCCCC1)N(C(=O)Cc1cccs1)c1ccccc1 (centres unmarked) | -13.5
44 | Cc1nn2c3ccccc3nc2c2ccccc12 | -17.5
45 | C#CCNC(=O)C1=C[C@H](c2ccccc2)C[C@H](OCCCCO)O1 | 11.2
46 | COc1cc(C(=O)OCC(=O)Nc2cc(C)on2)cc(OC)c1OC | -12.4

Row | Structure (SMILES) | hERG current change (%, negative = inhibition) at 10uM [%]
47 | CCCc1ccc(C(=O)Cn2nc(C(=O)O)c3ccccc3c2=O)cc1 | 10.8
48 | O=C(CCCn1c(SCC(=O)Nc2ccccc2C(F)(F)F)nc2ccccc2c1=O)NCC1CCCO1 (centres unmarked) | -23
49 | CN(C)CCCNC(=O)/C(=N\O)c1ccccc1 | 25.7
50 | O=C1OC(c2ccccc2)C2(CCCC2)C(=O)C12CCCC2 (centres unmarked) | -8.65
51 | COc1ccc2c(c1OC)C(=O)OC2N1C(=O)CC[C@H]1C(=O)NCC1CCCO1 (some centres unmarked) | 18.9
52 | CN1C(=O)CC(NNC(=O)c2ccccc2)C1=O (centres unmarked) | 7.6
53 | N#Cc1ccccc1OCC(=O)NC(=O)NCc1ccccc1 | -11.6
54 | CCOC(=O)C(NC(C)=O)C(OC(C)=O)c1cccc(N(CCCl)CCCl)c1 (centres unmarked) | -3.64
55 | CN(Cc1nc2ccccc2n1C)S(=O)(=O)c1ccc(Cl)cc1 | 3.21
56 | Cc1[nH]nc2c1C(c1cc(Br)cs1)C(C#N)=C(N)O2 (centres unmarked) | 17.3
57 | COc1ccccc1CNC(=O)C[n+]1ccccc1.[Cl-] | 3.72
58 | COC(=O)c1c(C)[nH]c(C(=O)/C=C/c2ccccc2)c1C | 1.52
59 | Cc1cc(C(=O)OC2CCOC2=O)c2ccccc2n1 (centres unmarked) | 7.46
60 | CCn1c(/N=C/c2ccccc2O)nc2ccccc21 | 10.3
61 | CN1CCN(S(=O)(=O)c2cc(C(F)(F)F)ccc2Cl)CC1.Cl | 10.4
62 | COc1ccc2nc(Nc3ccc4c(c3)OCO4)sc2c1 | -3.96
63 | COc1ccc(-n2ncc(C(C)NS(=O)(=O)c3ccc(C)s3)c2C)cc1 (centres unmarked) | -13
64 | COc1ccccc1CNC(=O)COC(=O)COc1ccccc1Cc1ccccc1 | 4.28
65 | COc1ccc(NC(=O)NCCCCc2ccccc2)cc1 | 1.06
66 | CC(C)(C)C1CCC2(CC1)NC(CO)(CO)CO2 (centres unmarked) | 6.53
67 | CCc1cccc(CC)c1NC(=S)Nc1cccc(Cl)c1Cl | 8.82
68 | COc1ccc(S(=O)(=O)NCc2ccccc2Cl)cc1OC | 2.08
69 | Oc1ccc(Br)cc1-c1cc(-c2ccccc2)n[nH]1 | -3.11

Row | Structure (SMILES) | hERG current change (%, negative = inhibition) at 10uM [%]
70 | COc1ccc(/C=N/N=C2/NC(=O)C(CC(=O)O)S2)cc1OCc1ccc(Cl)cc1Cl (centres unmarked) | 27.6
71 | CC(CN1CCN(C/C=C/c2ccccc2)CC1)c1ccccc1.O=C(O)C(=O)O (centres unmarked) | -59.6
72 | Cc1cc2c(cc(C(=O)NCc3cccnc3)n2Cc2ccc(Cl)cc2)o1 | 9.45
73 | Cc1ccc(N/C=C2\CCCCC2=O)nc1 | 10.2
74 | Cc1ccn2nc(S(=O)(=O)Nc3c(F)cccc3F)nc2n1 | 18.4
75 | CCC(=O)Nc1cccc(-c2nnc(SCC(=O)NCc3ccco3)n2C)c1 | 14.8
76 | CCOc1ccccc1CNC(CC)CO.Cl (centres unmarked) | 11
77 | COc1ccc(N=Cc2c(O)n(CC3CCCO3)c(=O)[nH]c2=O)cc1 (centres unmarked) | 2.05
78 | CCN(CC)S(=O)(=O)c1ccc(NN=C2CCN(C)CC2)c([N+](=O)[O-])c1 | -9.03
79 | NC(=O)C1CCN(C2=C(Cl)C(=O)c3ccccc3C2=O)CC1 | 13.6
80 | O=C(CCc1ccccc1)NC1CCSC1=O (centres unmarked) | 3.52
81 | CC(C)CC(c1nnnn1Cc1ccccc1)N1CCC(C(N)=O)CC1 (centres unmarked) | 7.71
82 | Cc1nc2ccccn2c1/C(O)=C1\C(=O)C(=O)N(CCCN(C)C)C1c1ccc(F)cc1 (centres unmarked) | 9.11
83 | Cc1cc(C)nc(SCC(=O)Nc2ncc(Cc3cccc(Cl)c3)s2)n1 | -11.6
84 | Cc1ccc(-n2ncc3c(=O)n(CC#N)cnc32)cc1C | 1.53
85 | CC(C)(C)c1cc(N2CCOCC2)n2ncc(-c3ccccc3)c2n1 | 28.9
86 | CCOc1ccccc1N(C(=O)c1ccccc1Cl)C1=NC(C)(C)CS1 | -2.51
87 | O=[N+]([O-])c1ccccc1C1Nc2cccc3cccc(c23)N1 | 11.8
88 | O=C1CC(c2ccccc2)c2ccccc21 (centres unmarked) | 8.78
89 | CCC(C)NC(=O)Cn1c(=O)n(-c2ccc(OC)cc2)c(=O)c2ccc(C(=O)NCc3ccc(C)cc3)cc21 (centres unmarked) | 17.5
